Some of the results follow. Shown are side measurements of this screen, not its main read-out; they come without a call.
Columns and labels:
Experiment in all cases: Primary Screen for Target Class Profiling of Small Molecule Inhibitors of Methyltransferases
[1] = biological target: Glycine N-methyltransferase (Homo sapiens) (UniProt Q14749); details: purified enzyme, MTase-Glo SAH luminescence; measured here: GNMT inhibition; at 40 µM; stronger effect = lower value
How it was run: (§1)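 Each enzyme was assayed with SAM and its substrate. SAH formation detected by MTase-Glo luminescence; single-point 40 uM screen[…].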

[2] = biological target: Guanidinoacetate N-methyltransferase (Homo sapiens) (UniProt Q14353); details: purified enzyme, MTase-Glo SAH luminescence; measured here: GAMT inhibition; at 40 µM; stronger effect = lower value
How it was run: as §1

[3] = biological target: Histamine N-methyltransferase (Homo sapiens) (UniProt P50135); details: purified enzyme, MTase-Glo SAH luminescence; measured here: HNMT inhibition; at 40 µM; stronger effect = lower value
How it was run: as §1

[4] = biological target: Nicotinamide N-methyltransferase (Homo sapiens) (UniProt P40261); details: purified enzyme, MTase-Glo SAH luminescence; measured here: NNMT inhibition; at 40 µM; stronger effect = lower value
How it was run: as §1

[5] = biological target: Phenylethanolamine N-methyltransferase (Homo sapiens) (UniProt P11086); details: purified enzyme, MTase-Glo SAH luminescence; measured here: PNMT inhibition; at 40 µM; stronger effect = lower value
How it was run: as §1
% is set by controls: 0 for no effect and ±100 for the full control effect.

CCOCCCN1C(=O)c2cc3occc3n2CC1(C)C(=O)NC1CCC(C)CC1 (stereo not drawn)
activity change, negative = inhibition [1]: -2.24%
activity change, negative = inhibition [2]: 4.2%
activity change, negative = inhibition [3]: 3.77%
activity change, negative = inhibition [4]: 3.89%
activity change, negative = inhibition [5]: -2.23%

O=C(NCc1ccccc1)c1ccc(-c2ccc(N3CCSCC3)nc2)cc1
activity change, negative = inhibition [1]: -6.07%
activity change, negative = inhibition [2]: -8.58%
activity change, negative = inhibition [3]: -4.75%
activity change, negative = inhibition [4]: -3.7%
activity change, negative = inhibition [5]: -1.54%

CCCn1c(=O)c2cc(Cl)ccc2n2c(SCC(=O)NCc3ccccc3Cl)nnc12
activity change, negative = inhibition [1]: -3.4%
activity change, negative = inhibition [2]: -11.2%
activity change, negative = inhibition [3]: 1.62%
activity change, negative = inhibition [4]: -8.86%
activity change, negative = inhibition [5]: -4.69%

COc1ccc(CN2C(=O)c3cc(-c4ccc(OC)cc4)nn3CC2(C)C(=O)NCc2ccccc2OC)cc1 (stereo not drawn)
activity change, negative = inhibition [1]: 3.48%
activity change, negative = inhibition [2]: 5.94%
activity change, negative = inhibition [3]: 5.68%
activity change, negative = inhibition [4]: -0.59%
activity change, negative = inhibition [5]: -1.15%

CN[C@@H]1[C@@H](O)[C@@H](O[C@@H]2[C@@H](O)[C@H](O[C@H]3O[C@H](CN)[C@@H](O)[C@H](O)[C@H]3O)[C@@H](N)C[C@H]2NC(=O)[C@@H](O)CN)OC[C@]1(C)O
activity change, negative = inhibition [1]: 26.8%
activity change, negative = inhibition [2]: 2.34%
activity change, negative = inhibition [3]: 2.2%
activity change, negative = inhibition [4]: -9.56%
activity change, negative = inhibition [5]: 0.363%

O=C(Cn1ccc2cc(S(=O)(=O)N3CCCCC3)ccc21)N1CCN(c2ccccn2)CC1
activity change, negative = inhibition [1]: -0.252%
activity change, negative = inhibition [2]: 0.184%
activity change, negative = inhibition [3]: 4.33%
activity change, negative = inhibition [4]: -2.48%
activity change, negative = inhibition [5]: 2.11%

CC1=CC(=O)CC(C)(C)C1CCC(C)O[C@@H]1O[C@H](CO)[C@@H](O)[C@H](O)[C@H]1O (stereo partly drawn)
activity change, negative = inhibition [1]: -5.04%
activity change, negative = inhibition [2]: -7.61%
activity change, negative = inhibition [3]: -1.4%
activity change, negative = inhibition [4]: -16%
activity change, negative = inhibition [5]: -2.49%

CCCN1C(=O)c2c(C(=O)NCc3ccc(N(C)C)cc3)ncn2CC1(C)C(=O)NCc1ccc(OC)cc1 (stereo not drawn)
activity change, negative = inhibition [1]: -1.12%
activity change, negative = inhibition [2]: 5.21%
activity change, negative = inhibition [3]: -1.38%
activity change, negative = inhibition [4]: 3.04%
activity change, negative = inhibition [5]: 1.9%

CCNC(=O)N1CC[C@H]2CC(=O)N([C@H](C(N)=O)C(C)C)CC[C@H]2C1
activity change, negative = inhibition [1]: -4.15%
activity change, negative = inhibition [2]: -0.044%
activity change, negative = inhibition [3]: -0.404%
activity change, negative = inhibition [4]: 0.329%
activity change, negative = inhibition [5]: 2.52%

CN1C[C@H](O)C[C@H]1c1nnc2n1CCN(C(=O)Cc1cccc(F)c1)CC2
activity change, negative = inhibition [1]: -0.005%
activity change, negative = inhibition [2]: 3.59%
activity change, negative = inhibition [3]: 2.18%
activity change, negative = inhibition [4]: -0.133%
activity change, negative = inhibition [5]: -8.8%

Cc1ccc(NS(=O)(=O)c2cc3c(cc2N[C@@H](C)CO)NC(=O)CC3)cc1Cl
activity change, negative = inhibition [2]: -3.46%
activity change, negative = inhibition [4]: -18.9%
activity change, negative = inhibition [5]: -10.4%

C=CC(C)(CC/C=C(\C)C(=O)OC)OC1OC(COC(=O)CC(C)(O)CC(=O)O)C(O)C(O)C1O (stereo not drawn)
activity change, negative = inhibition [1]: -0.401%
activity change, negative = inhibition [2]: 1.44%
activity change, negative = inhibition [3]: 2.8%
activity change, negative = inhibition [4]: -10.9%
activity change, negative = inhibition [5]: 3.73%

COc1ccc(CN2C(=O)c3cc4ccccc4n3CC2(C)C(=O)NCc2ccccc2)c(OC)c1 (stereo not drawn)
activity change, negative = inhibition [1]: -1.87%
activity change, negative = inhibition [2]: -0.345%
activity change, negative = inhibition [3]: 1.88%
activity change, negative = inhibition [4]: -7.32%
activity change, negative = inhibition [5]: -2.1%

CCCC1c2ccc(C)n2CCN1C(=O)Nc1ccc(F)c(Cl)c1 (stereo not drawn)
activity change, negative = inhibition [1]: 3.53%
activity change, negative = inhibition [2]: 0%
activity change, negative = inhibition [3]: -4.03%
activity change, negative = inhibition [4]: 8.21%
activity change, negative = inhibition [5]: -1.06%

Nc1nccn2c(C3CCC(C(=O)O)CC3)nc(-c3cc4cccc(Cl)c4[nH]3)c12 (stereo not drawn)
activity change, negative = inhibition [1]: -48.4%
activity change, negative = inhibition [2]: -9.11%
activity change, negative = inhibition [3]: -38.4%
activity change, negative = inhibition [4]: -21.8%
activity change, negative = inhibition [5]: -25%

Cc1ccccc1N1C(=O)c2cc3occc3n2CC1(C)C(=O)NC1CCCC(C)C1C (stereo not drawn)
activity change, negative = inhibition [1]: -5.55%
activity change, negative = inhibition [2]: -6.08%
activity change, negative = inhibition [3]: 5.28%
activity change, negative = inhibition [4]: -8.68%
activity change, negative = inhibition [5]: -4.85%

CCCCNC(=O)C(CC)n1ccc2cc(S(=O)(=O)N3CCCCC3)ccc21 (stereo not drawn)
activity change, negative = inhibition [1]: 4.25%
activity change, negative = inhibition [2]: 0.779%
activity change, negative = inhibition [3]: -1.36%
activity change, negative = inhibition [4]: 6.81%
activity change, negative = inhibition [5]: 2.02%

CC1CC(C)CN(S(=O)(=O)c2ccc3c(c2)oc(=O)n3CC(=O)Nc2cccc(F)c2)C1 (stereo not drawn)
activity change, negative = inhibition [1]: -12.4%
activity change, negative = inhibition [2]: -5.25%
activity change, negative = inhibition [3]: 7.18%
activity change, negative = inhibition [4]: -3.61%
activity change, negative = inhibition [5]: -38.5%

COc1ccc(C(=O)N2CC[C@@H](CC(=O)O)[C@@H](CCN3CCC[C@H]3C(N)=O)C2)cc1
activity change, negative = inhibition [1]: -1.47%
activity change, negative = inhibition [2]: -0.889%
activity change, negative = inhibition [3]: 1.05%
activity change, negative = inhibition [4]: -2.11%
activity change, negative = inhibition [5]: -3.54%

Cc1ccc(C)c(C(=O)Cn2nc3n(CCCOC(C)C)c(=O)c4ccccc4n3c2=O)c1
activity change, negative = inhibition [1]: 2.56%
activity change, negative = inhibition [2]: 6.14%
activity change, negative = inhibition [3]: 5.16%
activity change, negative = inhibition [4]: -8.01%
activity change, negative = inhibition [5]: 1.26%

Cc1nc(CN2CCN(c3nccc(-c4cccnc4)n3)CC2)cs1
activity change, negative = inhibition [1]: -9.09%
activity change, negative = inhibition [2]: -7.57%
activity change, negative = inhibition [3]: -5.41%
activity change, negative = inhibition [4]: -13.5%
activity change, negative = inhibition [5]: -8.23%

O=C(NCc1ccc(F)cc1)[C@@H]1C[C@@H](c2cccc(C(F)(F)F)c2)N(CC2CCOCC2)C1
activity change, negative = inhibition [1]: 0.079%
activity change, negative = inhibition [2]: 2.18%
activity change, negative = inhibition [3]: 3.6%
activity change, negative = inhibition [4]: -4.23%
activity change, negative = inhibition [5]: -3.29%

COc1ccc2cc3n(c2c1)CC(C)(C(=O)NC1CCCCC1)N(Cc1ccco1)C3=O (stereo not drawn)
activity change, negative = inhibition [1]: -9.02%
activity change, negative = inhibition [2]: 4.69%
activity change, negative = inhibition [3]: 1.41%
activity change, negative = inhibition [4]: -5.59%
activity change, negative = inhibition [5]: -0.088%

Cc1cc(C)c2nc(-c3ccccn3)cc(C(=O)Nc3ccc(S(=O)(=O)Nc4onc(C)c4C)cc3)c2c1
activity change, negative = inhibition [1]: -21.1%
activity change, negative = inhibition [2]: 2.09%
activity change, negative = inhibition [3]: -0.769%
activity change, negative = inhibition [4]: -44.7%
activity change, negative = inhibition [5]: -13.7%

CCC(c1cccs1)N1C(=O)[C@H]2CN(S(=O)(=O)c3ccccc3F)C[C@H]2C1=O (stereo partly drawn)
activity change, negative = inhibition [1]: -7.82%
activity change, negative = inhibition [2]: -9.33%
activity change, negative = inhibition [3]: -5.23%
activity change, negative = inhibition [4]: -8.76%
activity change, negative = inhibition [5]: -9.49%

CC(=O)Nc1c2n(c3ccccc13)CC(C)(C(=O)NC1CCCC1)N(Cc1cccs1)C2=O (stereo not drawn)
activity change, negative = inhibition [1]: -11%
activity change, negative = inhibition [2]: 2.11%
activity change, negative = inhibition [3]: -4.67%
activity change, negative = inhibition [4]: -2.87%
activity change, negative = inhibition [5]: 1.65%

O=S(=O)(c1ccccc1)c1nnn2c1nc(Nc1cccc(F)c1)c1ccccc12
activity change, negative = inhibition [1]: -2.84%
activity change, negative = inhibition [2]: 0%
activity change, negative = inhibition [3]: 6.71%
activity change, negative = inhibition [4]: -6.56%
activity change, negative = inhibition [5]: -1.8%

O=C1NCCN1C1CCN(Cc2cccnc2)CC1
activity change, negative = inhibition [1]: -3.06%
activity change, negative = inhibition [2]: -4.41%
activity change, negative = inhibition [3]: 2.6%
activity change, negative = inhibition [4]: -6.38%
activity change, negative = inhibition [5]: 0.842%

O=C(c1ccccn1)N1CCCC2(CNc3ccccc3[S+](=O)([O-])N2)C1 (stereo not drawn)
activity change, negative = inhibition [1]: -4.79%
activity change, negative = inhibition [2]: -7.28%
activity change, negative = inhibition [3]: -5.37%
activity change, negative = inhibition [4]: -14.1%
activity change, negative = inhibition [5]: -11.9%

CCOC(=O)c1cc2n(n1)CC(C)(C(=O)NCCC(C)C)N(c1ccccc1OC)C2=O (stereo not drawn)
activity change, negative = inhibition [1]: -0.325%
activity change, negative = inhibition [2]: 2.57%
activity change, negative = inhibition [3]: 7%
activity change, negative = inhibition [4]: 4.89%
activity change, negative = inhibition [5]: 0.517%

— PubChem BioAssay AID1745853 (National Center for Advancing Translational Sciences (NCATS), 2022)
